The values below come from PubChem BioAssay AID1645887 (National Center for Advancing Translational Sciences (NCATS), 2021).

“And” between values parts separate entries of the source, which are not always exact repeats. Identical values can stand only once. About 40 (0.2%) of roughly 16,000 compounds were called active. Not shown: some 1% with an inconclusive outcome. Calls follow the shape of the dose curve; as a rule, active = well fitted activation curve with a large enough effect; inconclusive = small, poorly fitted or top-dose-only effect, or another doubt; inactive = no such curve, though single readings can be large or run the other way. The list shows a part of the results.
% is scaled to controls: 0 for no effect and ±100 for the full control effect.

This test concerns the target Rap guanine nucleotide exchange factor 4 (Homo sapiens) (UniProt Q8WZA2). Briefly: Validation qHTS for agonist of cAMP-regulated guanine nucleotide exchange factor 4 (EPAC2).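 Also: exchange makes BODIPY-GDP fluorescence drop when released from Rap1B; series mostly up to about 150 µM.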 The note with it: EPAC2 Rap1B BODIPY-GDP exchange, fluorescence; activation: stronger effect = higher value. A digest of the protocol: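 Fluorescent exchange assay: 100 nM EPAC2 with 250 nM RAP1B-BODIPY-GDP and 50 uM GDP; compound added, 5 min at room temperature, then read (ex 480/em 540 nm) every 5 min for 30 min. Normalized to 6.5 mM cAMP agonist control.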
Sequence of UniProt Q8WZA2 (Q8WZA2 whole entry, looked up): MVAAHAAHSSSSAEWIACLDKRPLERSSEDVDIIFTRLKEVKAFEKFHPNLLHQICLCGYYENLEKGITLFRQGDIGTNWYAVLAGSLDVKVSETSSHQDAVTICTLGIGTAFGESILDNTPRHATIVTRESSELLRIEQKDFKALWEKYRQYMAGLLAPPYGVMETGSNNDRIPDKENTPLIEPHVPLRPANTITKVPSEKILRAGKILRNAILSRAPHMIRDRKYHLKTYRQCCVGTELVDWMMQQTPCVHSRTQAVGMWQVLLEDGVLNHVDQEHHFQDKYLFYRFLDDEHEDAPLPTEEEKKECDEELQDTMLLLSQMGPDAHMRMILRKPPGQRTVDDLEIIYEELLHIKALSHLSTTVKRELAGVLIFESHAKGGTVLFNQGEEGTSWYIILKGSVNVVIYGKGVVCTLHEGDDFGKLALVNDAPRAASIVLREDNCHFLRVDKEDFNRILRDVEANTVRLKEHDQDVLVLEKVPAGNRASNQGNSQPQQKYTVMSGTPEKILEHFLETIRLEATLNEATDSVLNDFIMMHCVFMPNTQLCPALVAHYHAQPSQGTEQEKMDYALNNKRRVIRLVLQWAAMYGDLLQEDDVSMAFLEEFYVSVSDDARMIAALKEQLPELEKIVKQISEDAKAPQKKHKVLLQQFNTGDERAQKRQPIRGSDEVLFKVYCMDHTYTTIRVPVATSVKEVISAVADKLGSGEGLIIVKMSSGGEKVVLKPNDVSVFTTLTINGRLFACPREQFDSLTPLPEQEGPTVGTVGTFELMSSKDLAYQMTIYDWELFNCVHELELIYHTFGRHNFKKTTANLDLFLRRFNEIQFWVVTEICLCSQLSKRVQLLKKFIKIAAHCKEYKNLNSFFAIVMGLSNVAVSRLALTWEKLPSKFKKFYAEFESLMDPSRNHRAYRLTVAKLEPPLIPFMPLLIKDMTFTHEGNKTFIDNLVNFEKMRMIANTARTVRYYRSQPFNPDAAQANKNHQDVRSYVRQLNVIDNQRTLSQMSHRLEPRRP
Background: qHTS replaces the single test concentration by a dilution series.
As for `Clc1cc(I)cc(Cl)c1NC1=NCCN1`, the activation is inactive: -13.1%.

On to `C[C@@H](N)Cc1cnc[nH]1`, for which the activation is inactive: -17.3% and inactive: 13.1% and inactive: -28%.

Take `CC1NCCOC1c1ccccc1` (stereo not drawn): the activation was inactive: -14%.

On to `COc1ccc2c3c([nH]c2c1)C(C)=NCC3`, for which the activation is inactive: 23% and inactive: -2.23% and inactive: 8.55%.

With `CCC(C)(C)c1ccc(O)cc1`, the activation is inactive: -21.7%.

On to `CCCN1CCC[C@@H]2Cc3[nH]ncc3C[C@H]21`, for which the activation was inactive: -9.67% [middle of 4 runs].

Turning to `C=C(C)C1CNC(C(=O)O)C1CC(=O)O` (stereo not drawn), the activation was inactive: 4.42%.

For `O=C(N/N=C/c1ccc([N+](=O)[O-])o1)c1cc([N+](=O)[O-])cc([N+](=O)[O-])c1O`, the activation is inactive: -21.5%.

On to `C[C@]12CC[C@H]3[C@@H](CC[C@@]45O[C@@H]4C(O)=C(C#N)C[C@]35C)[C@@H]1CC[C@@H]2O`, for which the activation was inactive: -8.17%.

On to `C[C@@]12CC(c3ccoc3)OC(=O)C1CC[C@@]1(C)C2C2C=C[C@@]1(O)C(=O)O2` (stereo partly drawn), for which the activation is inactive: -20.5%.

`COC1=C[C@H]2[C@H]3Cc4ccc(OC)c(O)c4[C@@]2(CCN3C)CC1=O`: the activation was inactive: -1.84%.

Consider `O=C(Oc1ccccc1)N1CCC2(CCCN(C(c3ccccc3)c3ccccc3)C2)CC1`, for which the activation is inactive: -15.7%.

Take `O=C1CSC(c2ccccc2Cl)c2cc(Cl)ccc2N1` (stereo not drawn): the activation was inactive: 13.3%.

For `CC(C)CCC(=O)O[C@H]1CC[C@H]2[C@@H]3CCC4=CC(=O)CC[C@]4(C)[C@H]3CC[C@]12C`, the activation was inactive: -8.21%.

On to `NNC(=O)c1ccc(O)cc1`, for which the activation was inactive: 5.24%.

As to `COC(=O)[C@@H](N)CCCN=C(N)N[N+](=O)[O-]`, the activation was inactive: -4.09% and inactive: -12.6%.

Turning to `C[C@]1(O)CC[C@H]2[C@@H]3CCC4=CC(=O)CC[C@]4(C)[C@@]3(F)[C@@H](O)C[C@@]21C`, the activation is inactive: 8.59%.

In the case of `CN1CCN=C(c2ccccc2)c2cc(Cl)ccc21`, the activation was inactive: -5.03%.

For `O[C@@H]1CCCC[C@@H]1N1CCC(c2ccccc2)CC1`, the activation was inactive: 5.35%.

`CCCC[C@H]1C(=O)O[C@H](C)[C@H](NC(=O)c2cccc(NC=O)c2OC)C(=O)O[C@@H](C)[C@@H]1OC(=O)CC(C)C`: the activation is inactive: -41%.

Turning to `C=C(C)C1Cc2c(ccc3c(=O)c4c(oc23)COc2cc(OC)c(OC)cc2-4)O1` (stereo not drawn), the activation was inactive: 1.58% and inactive: -10.2%.

With `CCCOc1ccc2[nH]cc(C3=CCNCC3)c2n1`, the activation is inactive: -8.58%.

Take `FC(F)OC(F)(F)C(F)Cl` (stereo not drawn): the activation is inactive: 7.59%.

Turning to `C[C@H](CN1CCOCC1)C(C(=O)N1CCCC1)(c1ccccc1)c1ccccc1`, the activation is inactive: -20%.

In the case of `CNCCc1c[nH]c2ccc(O)cc12`, the activation was inactive: 4.52% and inactive: -16.7%.

As for `C[C@@]12CCC3C(CC[C@@H]4CC(O)CC[C@@]34C)C1CCC2O` (stereo partly drawn), the activation is inactive: -15.8%.

Consider `NCCCP(=O)(O)O`, for which the activation is inactive: -28.2%.

Consider `CCC1(CC)C(=O)C=CNC1=O`, for which the activation was inactive: -13.2%.

Regarding `NC1=NC(=O)N2CC12` (stereo not drawn), the activation is inactive: 14.8%.

Take `CC(C)(c1ccc(OCC2CO2)cc1)c1ccc(OCC2CO2)cc1` (stereo not drawn): the activation was inactive: -9.17% and inactive: -12.8%.

For `c1ccc(N2CCN(c3ccccc3)CC2)cc1`, the activation was inactive: -1.12%.

With `O=C(NC(=O)c1c(F)cccc1F)Nc1cc(Cl)c(OC(F)(F)C(F)C(F)(F)F)cc1Cl` (stereo not drawn), the activation is inactive: 9.23% and inactive: -12.8%.

Take `NC[C@@H](CC(=O)O)c1ccc(Cl)cc1`: the activation is inactive: -17.7%.

Regarding `CCOC(=O)c1cc2c(cn1)[nH]c1ccccc12`, the activation was inactive: -1.95% and inactive: 2.43%.

Consider `CNCC(=O)c1ccc(O)c(O)c1`, for which the activation is inactive: 3.95%.

Take `C[C@]12CC[C@H]3[C@@H](CCC4=C(Cl)C(=O)CC[C@@]43C)[C@@H]1CC[C@@H]2O`: the activation is inactive: -3.91%.

Regarding `CC1=C2C3OC(=O)[C@H](C)[C@H]3CC[C@@]2(C)C=CC1=O` (stereo partly drawn), the activation was inactive: -0.976%.

As for `CC(C)CN1CC[C@@]2(CCCN(C(=O)Oc3ccccc3)C2)C1`, the activation is inactive: -0.364%.

`NNC(N)=O`: the activation was inactive: -13%.

Consider `ClC1=C(Cl)[C@]2(Cl)[C@@H]3[C@H]4C[C@H]([C@@H]5O[C@H]45)[C@@H]3[C@@]1(Cl)C2(Cl)Cl`, for which the activation was inactive: -2.08%.

As to `CC1(C)N(O)C(c2ccc(C(=O)O)cc2)=[N+]([O-])C1(C)C`, the activation was inactive: -19.6%.

As for `CC(C)[C@@]1(NC(=O)[C@H]2CC3c4cccc5[nH]cc(c45)C[C@H]3N(C)C2)O[C@@]2(O)C3CCCN3C(=O)[C@@H](Cc3ccccc3)N2C1=O` (stereo partly drawn), the activation is inactive: 17.1%.

Consider `CC(C)(C)NCC(O)c1cc(Cl)c(N)c(Cl)c1` (stereo not drawn), for which the activation is inactive: -16.3% and inactive: 0.535%.

On to `CC[C@]1(C2=NCCN2)Cc2ccccc2O1`, for which the activation is inactive: -2.67%.

In the case of `Fc1ccc(C(OCCN2CCN(CCCc3ccccc3)CC2)c2ccc(F)cc2)cc1`, the activation is inactive: -7.07% and inactive: -6.71% and inactive: -27.8%.

In the case of `N[C@@H](CCl)C(=O)O`, the activation was inactive: -37%.

Turning to `COc1cc2c(cc1OC)[C@@]13CCN4CC5=CCO[C@H]6CC(=O)N2[C@H]1[C@H]6[C@H]5C[C@H]43`, the activation is inactive: -9.08%.

With `CCOCN(C(=O)CCl)c1c(C)cccc1CC`, the activation was inactive: -5.56%.

For the compound `C=C1[C@@H](C)[C@H]2[C@H](Cc3ccccc3)NC(=O)[C@]23[C@H](OC(C)=O)/C=C/[C@](C)(O)C(=O)[C@@H](C)C/C=C/[C@H]3[C@@H]1O`, the activation is inactive: -7.31%.

As to `CC(CN)CC(=O)O` (stereo not drawn), the activation is inactive: -6.06%.

In the case of `C=C(C)[C@H]1Cc2c(ccc3c2O[C@@H]2COc4cc(OC)c(OC)cc4[C@@H]2C3=O)O1`, the activation was inactive: -12.6% and inactive: -27.2% and inactive: -56.9%.

Turning to `COC(=O)C1=CCCN(C)C1`, the activation was inactive: -7.37% and inactive: -14.9% and inactive: -24.3%.

On to `C=C(C)CN1CC[C@@]23c4c5ccc(O)c4O[C@H]2c2[nH]c4ccccc4c2C[C@]3(O)[C@@H]1C5`, for which the activation is inactive: -27.3%.
